PubChem BioAssay AID588342 (National Center for Advancing Translational Sciences (NCATS), 2011)
The campaign covered roughly 360,000 compounds. About 25,000 (6.9%) were called active. Inconclusive means that the source gave no clear call. Such entries were picked first, then a sample of the others. Calls come from the whole dose curve; as a rule, active = well fitted inhibition curve with a large enough effect; inconclusive = small, poorly fitted or top-dose-only effect; inactive = flat fitted curve, though single readings scatter. Potencies of inconclusive entries are doubtful fits and often do not repeat.
Note: nearly all actives have a fitted effect of over 55% in size.
Potency is the fitted concentration of half-maximal effect; tags give direction and shape of the fitted curve.
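Throughout, for activity change, negative = inhibition: plate controls were vehicle for no effect and reference inhibitor for full effect.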

What follows are compounds tested against Luciferin 4-monooxygenase (Photinus pyralis) (UniProt P08659) (assay: qHTS profiling assay for firefly luciferase inhibitor/activator using purifed enzyme and Km concentrations of substrates (counterscreen for miR-21 project)). Conditions: purified FLuc, luminescence inhibition; series mostly up to 57.5 µM; activity change, negative = inhibition: at the top concentration.
Sequence of UniProt P08659 (P08659 whole entry, looked up): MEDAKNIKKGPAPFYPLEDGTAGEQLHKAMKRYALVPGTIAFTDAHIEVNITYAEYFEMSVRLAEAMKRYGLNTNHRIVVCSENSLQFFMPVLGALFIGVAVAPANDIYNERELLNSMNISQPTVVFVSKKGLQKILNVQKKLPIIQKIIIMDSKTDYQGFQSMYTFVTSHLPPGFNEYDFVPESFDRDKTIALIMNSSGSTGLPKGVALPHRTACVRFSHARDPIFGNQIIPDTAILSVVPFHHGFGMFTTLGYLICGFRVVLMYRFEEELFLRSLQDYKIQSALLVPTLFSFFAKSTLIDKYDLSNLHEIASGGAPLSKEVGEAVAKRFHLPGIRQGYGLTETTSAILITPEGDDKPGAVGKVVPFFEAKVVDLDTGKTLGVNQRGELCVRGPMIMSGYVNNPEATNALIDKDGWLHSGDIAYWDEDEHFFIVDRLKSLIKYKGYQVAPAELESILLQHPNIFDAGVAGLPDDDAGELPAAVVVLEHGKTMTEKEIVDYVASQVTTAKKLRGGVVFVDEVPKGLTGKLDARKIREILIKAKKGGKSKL
How it was run: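 Biochemical qHTS of compounds, final roughly 60 µM downward over six points, against 10 nM purified firefly luciferase using Km concentrations of substrates (10 uM D-luciferin, 10 uM ATP) in Tris acetate pH 7.5 buffer; luminescence output.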
For `CCCOc1ccc(-c2nc(OCC)c3ccccc3n2)cc1`, the Potency was inconclusive: 19 µM [inhibitor, partial curve]. For `Cc1c(CCC(=O)N[C@@H](C)C(=O)O)c(=O)oc2cc3oc4c(c3cc12)CCCC4`, the Potency was active: 10.7 µM. For `CCc1ccc(NC(=O)Cc2c(C(=O)O)n(C)c3ccccc23)cc1`, the Potency was inconclusive: 15.1 µM [inhibitor, partial curve]. In the case of `CCc1ccc(/C=N/NC(=O)c2ccc(OC3CCCC3)cc2)s1`, the Potency is reported as inconclusive: 10.7 µM [inhibitor, partial curve, poor fit]. `COc1ccc(CSc2nc(C)cc(=O)[nH]2)cc1` was tested, and the Potency was inconclusive: 30.1 µM [inhibitor, partial curve, poor fit]. For `CC(C)(C)N=C1NN=C(c2ccc(Cl)cc2)CS1`, the Potency was active: 2.69 µM. In the case of `Cc1cccc(NC(=O)c2cccc(N3C(=O)C4C5C=CC(C6CC56)C4C3=O)c2)c1` (stereo unspecified), the Potency is reported as inconclusive: 26.9 µM [inhibitor, partial curve, poor fit]. For `Cc1cc(C)n(C(=O)CNC(=O)c2ccccc2F)n1`, the Potency was inconclusive: 21.3 µM [inhibitor, partial curve, poor fit]. For `O=c1c(-c2ccccc2)nc(-c2ccccc2)cn1O`, the Potency was inconclusive: 6.01 µM [inhibitor, full curve]. For `CCOCCn1c(COc2ccccc2)nc2ccccc21`, the Potency was inconclusive: 23.9 µM [inhibitor, partial curve, poor fit]. With `COc1ccc(CC(=O)O/N=C(\N)c2ccc(OC)cc2)cc1` the Potency was inconclusive: 21.3 µM [inhibitor, single point]. In the case of `Cc1ccc(NC(=O)Nc2nnc(Cc3ccc([N+](=O)[O-])cc3)s2)cc1`, the Potency is reported as inconclusive: 23.9 µM [inhibitor, single point]. With `COc1cccc(CNC(=O)CN2N=C(c3ccc(C)cc3)CCC2=O)c1` the Potency was inconclusive: 37.9 µM [inhibitor, partial curve, poor fit]. `Cn1c2ccccc2c(=O)c2c(=O)n(Cc3ccco3)c(-c3ccc(C(C)(C)C)cc3)nc21` was tested, and the “activity change, negative = inhibition” value was inactive: 1.37%. For `CCC(C(=O)N1CCN(c2cc(Cl)ccc2C)CC1)n1nc(C)c2sc3ccccc3c2c1=O` (stereo unspecified), the Potency was inconclusive: 10.7 µM [inhibitor, partial curve, poor fit]. With `CC(=O)Nc1ccc(NC(=O)CSc2ccc(C)cc2)cc1` the “activity change, negative = inhibition” value was inactive: 0.236%. For `OCCN=C1CCCc2c1[nH]c1ccc(Br)cc21`, the Potency was inconclusive: 33.8 µM [inhibitor, partial curve, poor fit]. `O=C(NCc1ccccc1Cl)c1cccn1-c1nnc(N2CCCCC2)s1` was tested, and the Potency was inconclusive: 16.9 µM [inhibitor, partial curve, poor fit]. For `COc1ccc(-c2cc(C(=O)N(C)CC(=O)Nc3ccccc3Br)c3ccccc3n2)cc1OC`, the Potency was inconclusive: 16.9 µM [inhibitor, single point]. In the case of `Cc1ccc(C(=O)/C=C/Nc2ccc(S(=O)(=O)Nc3cc(C)nc(C)n3)cc2)cc1`, the Potency is reported as inconclusive: 4.78 µM [inhibitor, full curve]. In the case of `O=C1/C(=C/c2ccc(Br)cc2)Oc2cc(O)ccc21`, the Potency is reported as active: 3.79 µM. In the case of `CC(=O)c1ccccc1NS(=O)(=O)c1cc2c(cc1C)NC(=O)CO2`, the “activity change, negative = inhibition” value is reported as inactive: -3.2%. In the case of `CCN(CC)CCCNC(=O)CCCn1c(=O)[nH]c2ccc(Br)cc2c1=O`, the “activity change, negative = inhibition” value is reported as inactive: -1.87%. `COc1ccc(C/C(C)=N/NC(=S)Nc2ccc(C)c(C)c2)cc1` was tested, and the Potency was inconclusive: 21.3 µM [inhibitor, single point]. `COc1ccc(-c2nnc(SCC(=O)Nc3nncs3)o2)cc1` was tested, and the Potency was inconclusive: 16.9 µM [inhibitor, partial curve]. For `CSc1nnc(NC(=O)C2CCCCC2)s1`, the Potency was inconclusive: 30.1 µM [inhibitor, partial curve, poor fit]. In the case of `CCC(=O)Nc1ccc(C)cc1-c1nc2ccccc2n(C(C)C(=O)Nc2ccccc2CC)c1=O` (stereo unspecified), the “activity change, negative = inhibition” value is reported as inactive: -0.472%. `CC(=O)C1CCC2C3CCC4=CC(=O)CC[C@]4(C)[C@@]3(F)C(O)C[C@]12C` (stereo partly specified) was tested, and the “activity change, negative = inhibition” value was inactive: 6.15%. For `CN(C)c1ccc(NC(=O)CN2C(=O)c3ccccc3C2=O)cc1`, the Potency was inconclusive: 13.5 µM [inhibitor, partial curve]. `CNc1ccc(Br)cc(C(=O)/C=C/c2ccc(OC)cc2)c1=O` was tested, and the Potency was inconclusive: 13.5 µM [inhibitor, partial curve]. For `N#C/C(=C(/O)COC(=O)c1ccc2c(c1)OCCO2)c1nc2ccccc2[nH]1`, the Potency was inconclusive: 30.1 µM [inhibitor, partial curve, poor fit]. With `O=C(CSc1nc2ncccc2[nH]1)Nc1ccc2c(c1)OCO2` the Potency was inconclusive: 26.9 µM [inhibitor, partial curve, poor fit]. For `CCOC(=O)c1cnc(Nc2ccccc2)nc1C(F)(F)F`, the Potency was active: 23.9 µM. For `COc1cc(C=C2C(=O)c3ccccc3C2=O)cc(OC)c1OC`, the Potency was inconclusive: 8.49 µM [inhibitor, partial curve]. `Cc1c(C(=O)NCc2ccccc2)oc2ccc(S(=O)(=O)N3CCCC3)cc12` was tested, and the “activity change, negative = inhibition” value was inactive: -1.12%. For `C#CCn1c(/C=C/c2ccc(Cl)cc2)nc2ccccc21`, the Potency was active: 0.19 µM. With `O=C(COC(=O)c1ccccc1NC(=O)c1ccccc1)c1ccc([N+](=O)[O-])cc1` the Potency was inconclusive: 16.9 µM [inhibitor, partial curve]. `Brc1c(OCCOCCn2cncn2)ccc2ccccc12` was tested, and the Potency was inconclusive: 21.3 µM [inhibitor, partial curve, poor fit]. `CCN1CCN(c2ccc(NC(=O)c3ccc(Br)o3)cc2)CC1` was tested, and the Potency was active: 16.9 µM. For `Cc1ccc(N2C(=O)Nc3ccccc3C2(O)C(=O)N2CCN(c3ccccn3)CC2)cc1C` (stereo unspecified), the Potency was inconclusive: 30.1 µM [inhibitor, single point]. `CC(C)CC(=O)NCC(c1ccc2c(c1)OCO2)N1CCN(c2ccccc2F)CC1` (stereo unspecified) was tested, and the “activity change, negative = inhibition” value was inactive: 1.69%. `CN(C)c1ccc(/C=N/NC(=O)CNC(=O)c2ccc3c(c2)OCCO3)cc1` was tested, and the Potency was inconclusive: 37.9 µM [inhibitor, single point]. With `Cc1nnc(SCc2c(Cl)cccc2[N+](=O)[O-])s1` the “activity change, negative = inhibition” value was inactive: -1.95%. `CCOc1ccc(CNc2ccc3c(c2)nc(C)n3C)cc1` was tested, and the Potency was inconclusive: 30.1 µM [inhibitor, single point]. In the case of `COc1ccc(/C(N)=N/OC(=O)c2cccc([N+](=O)[O-])c2)cc1OC`, the Potency is reported as inconclusive: 37.9 µM [inhibitor, partial curve, poor fit]. `COCCn1c(C)c(C)c2c(NCCc3ccccc3)ncnc21` was tested, and the Potency was active: 0.849 µM. For `CSCCNC(C)=O`, the “activity change, negative = inhibition” value was inactive: -0.662%. With `O=C(NNc1nc2ccccc2s1)Nc1ccc(Cl)c(Cl)c1` the Potency was inconclusive: 37.9 µM [inhibitor, partial curve, poor fit]. With `FC(F)(F)c1ccccc1NC(=S)NN=C1CCCCCC1` the Potency was inconclusive: 37.9 µM [inhibitor, partial curve, poor fit]. For `CCc1nc2ccc(C(=O)Nc3nnc(C)s3)cc2nc1CC`, the Potency was inconclusive: 21.3 µM [inhibitor, partial curve]. In the case of `O=C(COC(=O)CNC(=O)C12CC3CC(CC(C3)C1)C2)Nc1ccccc1`, the Potency is reported as inconclusive: 30.1 µM [inhibitor, partial curve, poor fit]. `Cc1ccccc1NC1=C/C(=N\S(=O)(=O)c2ccc(C(=O)O)cc2)c2ccccc2C1=O` was tested, and the Potency was inconclusive: 23.9 µM [inhibitor, single point]. For `CSc1ccccc1NC(=O)COc1ccccc1C`, the Potency was inconclusive: 26.9 µM [inhibitor, partial curve, poor fit]. `COc1ccc(OC)c(CNC(=O)c2ccccc2NC(=O)c2nsc3ccccc23)c1` was tested, and the Potency was inconclusive: 23.9 µM [inhibitor, single point]. `Cc1ccc(N2CCn3c2nc2c3c(=O)n(CCCc3ccccc3)c(=O)n2C)cc1` was tested, and the Potency was inconclusive: 10.7 µM [inhibitor, partial curve]. `COc1cccc2cc(-c3cn4c(n3)sc3cc(F)ccc34)c(=O)oc12` was tested, and the Potency was active: 2.39 µM. With `COc1ccc(NS(=O)(=O)c2cccc(C(=O)NNC(=O)c3cc(C)oc3C)c2)cc1` the Potency was inconclusive: 26.9 µM [inhibitor, single point]. `O=C(COc1ccc2c(-c3ccccc3)cc(=O)oc2c1)NCc1ccccn1` was tested, and the Potency was inconclusive: 19 µM [inhibitor, single point]. With `COc1ccc(NS(=O)(=O)c2ccc(NC(=O)c3ccc(Br)cc3)cc2)nn1` the Potency was inconclusive: 30.1 µM [inhibitor, partial curve, poor fit]. `Cc1nc2c(Br)cc(Br)cc2cc1O` was tested, and the “activity change, negative = inhibition” value was inactive: -9.95%. `COC(=O)C1=CN(c2cccc(C(F)(F)F)c2)C=C(C(=O)OC)C1c1ccc(O)c(OC)c1` was tested, and the Potency was inconclusive: 21.3 µM [inhibitor, partial curve, poor fit]. For `O=C(Nc1ccc(Cl)c(Cl)c1)Oc1ccc(NC(=O)c2ccco2)cc1`, the Potency was inconclusive: 30.1 µM [inhibitor, partial curve, poor fit]. `Cc1c(CCC(=O)NCCC(=O)O)c(=O)oc2cc3occ(-c4ccccc4)c3cc12` was tested, and the “activity change, negative = inhibition” value was inactive: -17.8%. For `O=C(Nc1ccccc1NC(=O)NC1CCCCC1)NC1CCCCC1`, the Potency was inconclusive: 10.7 µM [inhibitor, partial curve, poor fit]. `Brc1ccc(CNCCCSc2nnnn2-c2ccccc2)cc1` was tested, and the “activity change, negative = inhibition” value was inactive: 5.03%. For `O=C(/C=C/c1ccccc1)Oc1cccc2cccnc12`, the Potency was inconclusive: 21.3 µM [inhibitor, partial curve, poor fit]. For `C/C(=N\NC(=O)COc1ccccc1)c1ccc(O)cc1`, the Potency was inconclusive: 30.1 µM [inhibitor, partial curve, poor fit]. In the case of `Cc1ccc(-c2cnn(-c3cccc(C(F)(F)F)c3)c2N)cc1`, the Potency is reported as active: 7.57 µM. In the case of `Cc1cc(/C=C2\SC(=S)NC2=O)cc(C)c1O`, the Potency is reported as active: 8.49 µM. In the case of `O=C(NCc1ccc(F)cc1)C(c1ccccc1)c1ccccc1`, the “activity change, negative = inhibition” value is reported as inactive: 7.69%. In the case of `CCCOP(=O)(c1ccc(N(C)C)cc1)C(O)c1ccc(Br)cc1` (stereo unspecified), the “activity change, negative = inhibition” value is reported as inactive: 3.46%. `C=CCn1cc(Cl)cc(C(=O)Nc2ccccc2)c1=O` was tested, and the Potency was active: 16.9 µM. With `COc1ccccc1-c1noc(-c2ccc(N(C)Cc3ccccc3)c([N+](=O)[O-])c2)n1` the Potency was inconclusive: 21.3 µM [inhibitor, partial curve, poor fit]. In the case of `O=C(NCCc1ccccc1)c1ccccc1NS(=O)(=O)N1CCCC1`, the Potency is reported as inconclusive: 37.9 µM [inhibitor, partial curve, poor fit]. With `CCC(=O)Oc1ccc(-c2cnc3ccccc3n2)cc1` the Potency was active: 0.301 µM. `Cc1ccc(N=C(N)N=C(N)N)c(C)c1` was tested, and the “activity change, negative = inhibition” value was inactive: -0.537%. In the case of `COc1ccc2ccccc2c1/C=N/Nc1ccc(Cl)c(C(=O)O)c1`, the Potency is reported as inconclusive: 37.9 µM [inhibitor, single point]. In the case of `CC(Oc1ccc(F)cc1)C(=O)Nc1ccc2ccccc2c1` (stereo unspecified), the Potency is reported as inconclusive: 37.9 µM [inhibitor, single point]. For `Cc1ccc2nc(NC(=O)CSc3nc(=O)n(CCCN(C)C)c4c3CCC4)sc2c1`, the Potency was inconclusive: 15.1 µM [inhibitor, partial curve, poor fit]. `Cc1nn(CCCC(=O)NCc2cccc(F)c2)c(=O)c2nn(-c3ccccc3)c(C)c12` was tested, and the “activity change, negative = inhibition” value was inactive: -11%. `CCc1nc(CN2CCN(Cc3ccc(F)c(F)c3)C(CCO)C2)c(C)[nH]1` (stereo unspecified) was tested, and the “activity change, negative = inhibition” value was inactive: -1.18%.
